In publication PMC12820563:
The other results are listed elsewhere or left out. The list includes weakly bound sequences.

These sequences were tested against T1, MBP-FoxP3dN (UniProt Q99JB6) (assay: PD-seq (MBP pull-down with sequencing)). Conditions: 20 mM Tris-HCl pH 7.5, 100 mM NaCl, 1.5 mM MgCl2, 0.4 uM protein, 0.1 uM dsDNA library, 30 min, room temperature, amylose pull-down; high values mean tight binding; double strand, one strand shown.
T1 sequence: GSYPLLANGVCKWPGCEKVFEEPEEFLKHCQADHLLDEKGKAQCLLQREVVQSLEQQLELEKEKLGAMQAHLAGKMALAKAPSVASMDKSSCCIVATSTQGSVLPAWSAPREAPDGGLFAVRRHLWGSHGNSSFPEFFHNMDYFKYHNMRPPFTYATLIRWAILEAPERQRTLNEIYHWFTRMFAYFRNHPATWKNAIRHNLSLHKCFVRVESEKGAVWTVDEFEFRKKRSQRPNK

Row | Sequence | binding signal (RPM ratio (pull-down/input))
1 | GATGATTGTTCTCCCAGCTGATGAATTGAGTCTCTCGAGTAAACAAATTTTCCTAATCTTTCTGTTCAAGCGCCATCTAC | 0.631
2 | GATGATTGTTCTCCCAGCTGATGAATTAAGACCTTCGAGTAAACAAATTTTCCTAATCTTTCTGTTCAAGCGCCATCTAC | 0.293
3 | GATGATTGTTCTCCCAGCTGATGAATTCGTCCGCTCGAGTAAACAAATTTTCCTAATCTTTCTGTTCAAGCGCCATCTAC | 0.348
4 | GATGATTGTTCTCCCAGCTGATGAATTTCGGACCTCGAGTAAACAAATTTTCCTAATCTTTCTGTTCAAGCGCCATCTAC | 0.273
5 | GATGATTGTTCTCCCAGCTGATGAATTTACGCTGTCGAGTAAACAAATTTTCCTAATCTTTCTGTTCAAGCGCCATCTAC | 0.665
6 | GATGATTGTTCTCCCAGCTGATGAATTATCGGTCTCGAGTAAACAAATTTTCCTAATCTTTCTGTTCAAGCGCCATCTAC | 0.382
7 | GATGATTGTTCTCCCAGCTGATGAATTGTGCACATCGAGTAAACAAATTTTCCTAATCTTTCTGTTCAAGCGCCATCTAC | 2.08
8 | GATGATTGTTCTCCCAGCTGATGAATTACCTCTGTCGAGTAAACAAATTTTCCTAATCTTTCTGTTCAAGCGCCATCTAC | 0.303
9 | GATGATTGTTCTCCCAGCTGATGAATTCCAAGGGTCGAGTAAACAAATTTTCCTAATCTTTCTGTTCAAGCGCCATCTAC | 0.189
10 | GATGATTGTTCTCCCAGCTGATGAATTGTACAAATCGAGTAAACAAATTTTCCTAATCTTTCTGTTCAAGCGCCATCTAC | 0.425
11 | GATGATTGTTCTCCCAGCTGATGAATTTCATGTCTCGAGTAAACAAATTTTCCTAATCTTTCTGTTCAAGCGCCATCTAC | 0.74
12 | GATGATTGTTCTCCCAGCTGATGAATTACCGTCGTCGAGTAAACAAATTTTCCTAATCTTTCTGTTCAAGCGCCATCTAC | 0.55
13 | GATGATTGTTCTCCCAGCTGATGAATTCTTCAGCTCGAGTAAACAAATTTTCCTAATCTTTCTGTTCAAGCGCCATCTAC | 0.192
14 | GATGATTGTTCTCCCAGCTGATGAATTATATTTATCGAGTAAACAAATTTTCCTAATCTTTCTGTTCAAGCGCCATCTAC | 5.59
15 | GATGATTGTTCTCCCAGCTGATGAATTAACAGCCTCGAGTAAACAAATTTTCCTAATCTTTCTGTTCAAGCGCCATCTAC | 0.491
16 | GATGATTGTTCTCCCAGCTGATGAATTCGTGGAATCGAGTAAACAAATTTTCCTAATCTTTCTGTTCAAGCGCCATCTAC | 0.26
17 | GATGATTGTTCTCCCAGCTGATGAATTAAGGGCCTCGAGTAAACAAATTTTCCTAATCTTTCTGTTCAAGCGCCATCTAC | 0.451
18 | GATGATTGTTCTCCCAGCTGATGAATTATATGAATCGAGTAAACAAATTTTCCTAATCTTTCTGTTCAAGCGCCATCTAC | 0.419
19 | GATGATTGTTCTCCCAGCTGATGAATTATATACGTCGAGTAAACAAATTTTCCTAATCTTTCTGTTCAAGCGCCATCTAC | 0.728
20 | GATGATTGTTCTCCCAGCTGATGAATTGGAAGTTTCGAGTAAACAAATTTTCCTAATCTTTCTGTTCAAGCGCCATCTAC | 0.298
21 | GATGATTGTTCTCCCAGCTGATGAATTATTGTAGTCGAGTAAACAAATTTTCCTAATCTTTCTGTTCAAGCGCCATCTAC | 0.771

Row | Sequence | binding signal (RPM ratio (pull-down/input))
22 | GATGATTGTTCTCCCAGCTGATGAATTCATTGCATCGAGTAAACAAATTTTCCTAATCTTTCTGTTCAAGCGCCATCTAC | 1.32
23 | GATGATTGTTCTCCCAGCTGATGAATTACCCCCTTCGAGTAAACAAATTTTCCTAATCTTTCTGTTCAAGCGCCATCTAC | 0.287
24 | GATGATTGTTCTCCCAGCTGATGAATTACTTTGGTCGAGTAAACAAATTTTCCTAATCTTTCTGTTCAAGCGCCATCTAC | 0.512
25 | GATGATTGTTCTCCCAGCTGATGAATTTACAAGTTCGAGTAAACAAATTTTCCTAATCTTTCTGTTCAAGCGCCATCTAC | 0.469
26 | GATGATTGTTCTCCCAGCTGATGAATTTCAGTTCTCGAGTAAACAAATTTTCCTAATCTTTCTGTTCAAGCGCCATCTAC | 0.671
27 | GATGATTGTTCTCCCAGCTGATGAATTCTCGTAATCGAGTAAACAAATTTTCCTAATCTTTCTGTTCAAGCGCCATCTAC | 0.536
28 | GATGATTGTTCTCCCAGCTGATGAATTTAGATTTTCGAGTAAACAAATTTTCCTAATCTTTCTGTTCAAGCGCCATCTAC | 0.795
29 | GATGATTGTTCTCCCAGCTGATGAATTAAATATATCGAGTAAACAAATTTTCCTAATCTTTCTGTTCAAGCGCCATCTAC | 0.59
30 | GATGATTGTTCTCCCAGCTGATGAATTTGACCCGTCGAGTAAACAAATTTTCCTAATCTTTCTGTTCAAGCGCCATCTAC | 0.347
31 | GATGATTGTTCTCCCAGCTGATGAATTAACCCGTTCGAGTAAACAAATTTTCCTAATCTTTCTGTTCAAGCGCCATCTAC | 0.254
32 | GATGATTGTTCTCCCAGCTGATGAATTGTTTTTCTCGAGTAAACAAATTTTCCTAATCTTTCTGTTCAAGCGCCATCTAC | 4.35
33 | GATGATTGTTCTCCCAGCTGATGAATTCAAAATATCGAGTAAACAAATTTTCCTAATCTTTCTGTTCAAGCGCCATCTAC | 0.693
34 | GATGATTGTTCTCCCAGCTGATGAATTACGACGATCGAGTAAACAAATTTTCCTAATCTTTCTGTTCAAGCGCCATCTAC | 0.326
35 | GATGATTGTTCTCCCAGCTGATGAATTTCCACATTCGAGTAAACAAATTTTCCTAATCTTTCTGTTCAAGCGCCATCTAC | 0.331
36 | GATGATTGTTCTCCCAGCTGATGAATTCCGGACATCGAGTAAACAAATTTTCCTAATCTTTCTGTTCAAGCGCCATCTAC | 0.323
37 | GATGATTGTTCTCCCAGCTGATGAATTTGTGAGGTCGAGTAAACAAATTTTCCTAATCTTTCTGTTCAAGCGCCATCTAC | 2.87
38 | GATGATTGTTCTCCCAGCTGATGAATTCAGCTTTTCGAGTAAACAAATTTTCCTAATCTTTCTGTTCAAGCGCCATCTAC | 2.53
39 | GATGATTGTTCTCCCAGCTGATGAATTAGAATTATCGAGTAAACAAATTTTCCTAATCTTTCTGTTCAAGCGCCATCTAC | 0.709
40 | GATGATTGTTCTCCCAGCTGATGAATTAATAATTTCGAGTAAACAAATTTTCCTAATCTTTCTGTTCAAGCGCCATCTAC | 0.344
41 | GATGATTGTTCTCCCAGCTGATGAATTCAACCCTTCGAGTAAACAAATTTTCCTAATCTTTCTGTTCAAGCGCCATCTAC | 0.317
42 | GATGATTGTTCTCCCAGCTGATGAATTAATCAGGTCGAGTAAACAAATTTTCCTAATCTTTCTGTTCAAGCGCCATCTAC | 0.253

Row | Sequence | binding signal (RPM ratio (pull-down/input))
43 | GATGATTGTTCTCCCAGCTGATGAATTGAAGCGATCGAGTAAACAAATTTTCCTAATCTTTCTGTTCAAGCGCCATCTAC | 0.452
44 | GATGATTGTTCTCCCAGCTGATGAATTAACCGTATCGAGTAAACAAATTTTCCTAATCTTTCTGTTCAAGCGCCATCTAC | 0.403
45 | GATGATTGTTCTCCCAGCTGATGAATTACCACTGTCGAGTAAACAAATTTTCCTAATCTTTCTGTTCAAGCGCCATCTAC | 0.41
46 | GATGATTGTTCTCCCAGCTGATGAATTCATCCCTTCGAGTAAACAAATTTTCCTAATCTTTCTGTTCAAGCGCCATCTAC | 0.459
47 | GATGATTGTTCTCCCAGCTGATGAATTGCCCGTCTCGAGTAAACAAATTTTCCTAATCTTTCTGTTCAAGCGCCATCTAC | 0.482
48 | GATGATTGTTCTCCCAGCTGATGAATTCACAAGATCGAGTAAACAAATTTTCCTAATCTTTCTGTTCAAGCGCCATCTAC | 0.236
49 | GATGATTGTTCTCCCAGCTGATGAATTTCGAAATTCGAGTAAACAAATTTTCCTAATCTTTCTGTTCAAGCGCCATCTAC | 0.5
50 | GATGATTGTTCTCCCAGCTGATGAATTGGCCGTTTCGAGTAAACAAATTTTCCTAATCTTTCTGTTCAAGCGCCATCTAC | 0.498
51 | GATGATTGTTCTCCCAGCTGATGAATTCAAGACCTCGAGTAAACAAATTTTCCTAATCTTTCTGTTCAAGCGCCATCTAC | 0.209
52 | GATGATTGTTCTCCCAGCTGATGAATTGGTTCGTTCGAGTAAACAAATTTTCCTAATCTTTCTGTTCAAGCGCCATCTAC | 0.43
53 | GATGATTGTTCTCCCAGCTGATGAATTTCGTAAGTCGAGTAAACAAATTTTCCTAATCTTTCTGTTCAAGCGCCATCTAC | 0.41
54 | GATGATTGTTCTCCCAGCTGATGAATTTCTATTTTCGAGTAAACAAATTTTCCTAATCTTTCTGTTCAAGCGCCATCTAC | 0.543
55 | GATGATTGTTCTCCCAGCTGATGAATTATAGAAATCGAGTAAACAAATTTTCCTAATCTTTCTGTTCAAGCGCCATCTAC | 0.267
56 | GATGATTGTTCTCCCAGCTGATGAATTATCCAGCTCGAGTAAACAAATTTTCCTAATCTTTCTGTTCAAGCGCCATCTAC | 0.227
57 | GATGATTGTTCTCCCAGCTGATGAATTTACACCATCGAGTAAACAAATTTTCCTAATCTTTCTGTTCAAGCGCCATCTAC | 0.881
58 | GATGATTGTTCTCCCAGCTGATGAATTCGCCAGCTCGAGTAAACAAATTTTCCTAATCTTTCTGTTCAAGCGCCATCTAC | 0.312
59 | GATGATTGTTCTCCCAGCTGATGAATTCCTCGCCTCGAGTAAACAAATTTTCCTAATCTTTCTGTTCAAGCGCCATCTAC | 0.44
60 | GATGATTGTTCTCCCAGCTGATGAATTAACATCCTCGAGTAAACAAATTTTCCTAATCTTTCTGTTCAAGCGCCATCTAC | 0.476
61 | GATGATTGTTCTCCCAGCTGATGAATTGAAAAAGTCGAGTAAACAAATTTTCCTAATCTTTCTGTTCAAGCGCCATCTAC | 0.161
62 | GATGATTGTTCTCCCAGCTGATGAATTAGTTATTTCGAGTAAACAAATTTTCCTAATCTTTCTGTTCAAGCGCCATCTAC | 4.85
63 | GATGATTGTTCTCCCAGCTGATGAATTCTGAGGGTCGAGTAAACAAATTTTCCTAATCTTTCTGTTCAAGCGCCATCTAC | 0.308
